# Reference: PubChem BioAssay AID1345083 (National Center for Advancing Translational Sciences (NCATS), 2018)
# Hit rate of the full screen: of about 94,000 compounds, about 6,200 (6.6%) were called active. This list was built around the results that the source calls inconclusive (neither active nor inactive); the mix of calls is not that of the screen. Calls come from the whole dose curve; as a rule, active = well fitted inhibition curve with a large enough effect; inconclusive = small, poorly fitted or top-dose-only effect; inactive = flat fitted curve, though single readings scatter. Potencies beside an inconclusive call are fits to weak or partial responses and may not hold up.
# Experiment: Cytotoxic Profiling in HEK 293 Cell Line of Diverse Libraries Using Quantitative High-Throughput Screening; note: nearly all actives have a fitted effect of over 60% in size
# Details: HEK 293 viability, ATP luminescence (CellTiter-Glo), 48-72 h; activity change, negative = cytotoxicity: at 115 µM (top of the series) unless noted; series mostly up to 115 µM
# Summary of the method: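 CellTiter-Glo luminescence (cellular ATP) was read after 48 or 72 hr of compound exposure at 37 degree Celsius. Cells were HEK 293 plated at 250 cells/well.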
# % is set by controls: 0 for no effect and ±100 for the full control effect; potency is the fitted concentration of half-maximal effect; tags give direction and shape of the fitted curve.
SMILES,"activity change, negative = cytotoxicity",Potency,outcome
COc1ccc2c(c1)CCN=C2C[C@H]1CN(C(=O)c2cccc(F)c2)CC[C@H]1CC(=O)O,inactive: -12.7%,,
O=C(C1CCCC1)N1CCC(C(=O)N2CCC(c3ccccc3)CC2)CC1,,"inconclusive: 50.1 µM [inhibitor, partial curve, poor fit]",
O=C(c1ccc(F)c(F)c1)N1CCCC(n2cc(-c3nc(-c4ccccc4)no3)nn2)C1 (configuration not stated),,active: 44.7 µM,
O=C(Cc1cccc(F)c1)N1CCOCC12CCN(Cc1ccccc1)CC2,,"inconclusive: 39.8 µM [inhibitor, full curve, poor fit]",
CN(Cc1cccc(N2CCN(C(=O)c3c(Cl)cccc3Cl)CC2)c1F)[S+](C)(=O)[O-],,"inconclusive: 56.2 µM [inhibitor, partial curve, poor fit]",
Cc1ccc(NC(=O)O[C@@H]2CO[C@H]3[C@@H]2OC[C@@H]3Nc2nccc(-c3ccccc3)n2)cc1,,"inconclusive: 56.2 µM [inhibitor, full curve]",
O=C1[C@H]2CN(Cc3cc(F)c(F)cc3F)C[C@H]2C(=O)N1Cc1ccc2c(c1)OCO2,,"inconclusive: 79.4 µM [inhibitor, partial curve, poor fit]",
Cc1ccc(-n2c(C3CCN(C(=O)c4cc(C)ccc4C)CC3)n[nH]c2=O)cc1,inactive: -27.6%,,
COc1cccc(CN2CCc3nc(C4CC4)nc(-c4ccc(O)cc4)c3C2)c1,,"inconclusive: 50.1 µM [inhibitor, partial curve, poor fit]",
COc1ccc(-c2noc([C@@H]3CCCN3C(=O)c3ccc(OC)c(OC)c3)n2)cc1,,"inconclusive: 89.1 µM [inhibitor, single point]",
Cn1ncc2c(C(=O)NCC3CCCCC3)cc(-c3ccccc3C(F)(F)F)nc21,inactive: -27.2%,,
Cc1ccc(CNC(=O)CCC2CCCN(S(=O)(=O)c3ccccc3C)C2)cc1 (configuration not stated),,"inconclusive: 35.5 µM [inhibitor, full curve]",
Cc1nn(-c2ccc(F)cc2)c(Oc2ccccc2F)c1CCC(=O)N1CCSCC1,,"inconclusive: 56.2 µM [inhibitor, partial curve, poor fit]",
COc1ccc2c(c1)OCC(CNC(=O)c1cc(-c3ccncc3)n[nH]1)C2 (configuration not stated),,"inconclusive: 79.4 µM [inhibitor, partial curve, poor fit]",
O=C(Nc1ccc(F)cc1)c1cc2cccnn2n1,,"inconclusive: 100 µM [inhibitor, partial curve, poor fit]",
COc1ccc2c(c1)c(CN1CCCC(c3[nH]ccc3C(N)=O)C1)cn2C (configuration not stated),,"inconclusive: 89.1 µM [inhibitor, partial curve, poor fit]",
COc1ccccc1-c1cccc(C(=O)N2CCN(C(=O)NC3CCCC3)CC2)c1,,"inconclusive: 50.1 µM [inhibitor, partial curve, poor fit]",
O=C(Nc1ccc(Cl)cc1)N1CCN(CCn2nc3n(c2=O)CCCC3)CC1,inactive: 4.15%,,
COCCc1noc(C2CCCN(C(=O)Cn3ncc4ccccc4c3=O)C2)n1 (configuration not stated),,"inconclusive: 70.8 µM [inhibitor, partial curve, poor fit]",
O=C(Nc1ccc(Oc2ccccc2)cc1)O[C@@H]1CO[C@H]2[C@@H]1OC[C@@H]2NC(=O)c1cnccn1,,"inconclusive: 50.1 µM [inhibitor, partial curve, poor fit]",
CCOC(=O)C1CCN(C(=O)CC(c2ccc(Cl)cc2)c2cn(C)c3ccccc23)CC1 (configuration not stated),,"inconclusive: 63.1 µM [inhibitor, partial curve, poor fit]",

SMILES,"activity change, negative = cytotoxicity",Potency,outcome
CC(C)N1C[C@@H]2C[C@H]1C(=O)N(Cc1ccc(OC(F)(F)F)cc1)c1ccccc1O2,,active: 70.8 µM,
COc1cc(OC)cc(C(=O)N2CCCC3(C2)Nc2cccnc2NC3=NC2CCCC2)c1 (configuration not stated),,"inconclusive: 89.1 µM [inhibitor, single point]",
COc1ccc(CC(=O)N[C@@H]2CN(c3ccccn3)C[C@H]2CN(C)C)cc1OC,inactive: -0.876%,,
O=C1[C@@H]2C[C@@H](CN2CC2CC2)Oc2ccccc2N1Cc1cccnc1,,"inconclusive: 31.6 µM [inhibitor, partial curve, poor fit]",
COc1ccc(-c2cc(C[C@H]3CNCC[C@H]3CC(=O)Nc3nccs3)no2)cc1,,active: 100 µM,
COC[C@@H]1CN(C(=O)c2cc3ccccc3[nH]2)C[C@H]1c1ccccn1,,"inconclusive: 100 µM [inhibitor, single point]",
CCCn1cc(C(=O)NCC2COc3cc(OC)ccc3C2)c(C)n1 (configuration not stated),,"inconclusive: 39.8 µM [inhibitor, partial curve]",
Cc1ccsc1CN1CCCCCCN(C)C(=O)[C@@H]2CCC[C@@H]21,,"inconclusive: 50.1 µM [inhibitor, partial curve, poor fit]",
CC(=O)N1CCN(C(=O)c2nc3sccn3c2-c2cccc(C(F)(F)F)c2)CC1,inactive: -1.04%,,
Cn1c(=O)c2ccnn2c2ccc(C(=O)NCCN3CCC(N4CCCCC4)CC3)cc21,,,inactive
COCCNC(=O)[C@@H]1C[C@@H](O)CN1C1CCN(C(=O)C2CCC2)CC1,inactive: -4.44%,,
O=C(NCc1ccncc1)c1ccc(-c2ccc(N3CCCCC3)nc2)cc1,,"inconclusive: 39.8 µM [inhibitor, full curve, poor fit]",
COc1ccccc1N1CCN(C(=O)Cn2c(-c3ccc(F)cc3)nc(C)cc2=O)CC1,inactive: 0.339%,,
CC(C)N1C(=O)C2(CCCC2)C1C(=O)NCCCN1CCCC1=O (configuration not stated),inactive: 1.48%,,
N#Cc1ccc2nc([C@H]3CCN(Cc4ccc(F)c(F)c4)C3)[nH]c2c1,,"inconclusive: 50.1 µM [inhibitor, full curve, poor fit]",
COc1ccc(Cl)cc1NC(=O)C1CN(S(C)(=O)=O)CC12CCCCC2 (configuration not stated),,"inconclusive: 50.1 µM [inhibitor, partial curve, poor fit]",
O=C(C1CCCC1)N1CC2(CCN(C3CCCCC3)C2)Cc2ccccc21 (configuration not stated),,active: 44.7 µM,
O=C(O)Cn1ccc2cc(OCCc3cccc(-c4ccccc4F)c3)cnc21,,"inconclusive: 126 µM [inhibitor, single point]",
COc1cccc(Nc2ncc(-c3ccccc3OC)c3c2OCC3)c1,,"inconclusive: 8.91 µM [inhibitor, full curve]",
O=C(C1CCCC1)N1CCc2nc(C3CC3)nc(-c3ccc(O)cc3)c2CC1,,"inconclusive: 50.1 µM [inhibitor, partial curve, poor fit]",
CN1c2cccnc2CN(Cc2ccc(Cl)cc2)CC[C@H]1CO,,"inconclusive: 126 µM [inhibitor, single point]",

SMILES,"activity change, negative = cytotoxicity",Potency,outcome
CO[C@H]1C(=O)N(C2CCN(C(=O)c3n[nH]c4ccccc34)CC2)[C@H]1c1ccncc1,inactive: -0.138%,,
O=C(N[C@H]1CC[C@H](Nc2nccc(-c3cccnc3)n2)C1)c1ccc(O)cc1,,"inconclusive: 79.4 µM [inhibitor, partial curve, poor fit]",
O=C(Cc1ccccn1)NC1CCCN(Cc2ccc(-c3cncnc3)cc2)C1 (configuration not stated),inactive: -29.7%,,
O=C(c1ccccc1)N1CCC2(CC1)C(=NC1CCCCC1)NC(=O)N2c1cc(F)cc(F)c1,inactive: -9.35%,,
COc1ccccc1CNC(=O)C1CCCN1c1nccc(Nc2ccccc2F)n1 (configuration not stated),,active: 39.8 µM,
Cc1ccc(CNC(=O)c2ccc3c(c2)CN(Cc2ccncc2)CCO3)cc1,,"inconclusive: 22.4 µM [inhibitor, partial curve, poor fit]",
CCOc1ccc(C(=O)N2CCC3(CC2)C(=O)N(C)c2ccccc23)cc1OCC,,"inconclusive: 50.1 µM [inhibitor, partial curve, poor fit]",
COc1ccc(-c2cnc3n[nH]c(-c4ccc(F)cc4C)c3n2)cn1,,active: 50.1 µM,
Cc1cc(C(F)(F)F)nn1CCNC(=O)C1COc2ccccc2C1 (configuration not stated),,"inconclusive: 56.2 µM [inhibitor, partial curve, poor fit]",
Brc1cccc(-c2noc(-c3nc(-c4ccncc4)no3)n2)c1,inactive: 4.91%,,
COCCN1C(=O)c2ccccc2C(C(=O)NCc2ccco2)C12CCCCC2 (configuration not stated),,"inconclusive: 89.1 µM [inhibitor, partial curve, poor fit]",
CCNC(=O)C1C(c2cccc(NC(=O)c3ccccc3)c2)OC(=O)N1Cc1ccc(C)cc1 (configuration not stated),,"inconclusive: 79.4 µM [inhibitor, partial curve, poor fit]",
COc1cccc(-c2cc3c(=O)n(CCNC(=O)COc4ccc(F)cc4)ccn3n2)c1,inactive: -4.47%,,
COc1ccccc1Oc1ncccc1CNC(=O)C1CCOCC1,,,inactive
Cc1nc2ccc(C(=O)N3CCSCC3)cc2nc1C,,"inconclusive: 3.98 µM [inhibitor, full curve, poor fit]",
C=CCNC(=O)Cc1ccc(N(Cc2ccc(OC)cc2)C(=O)c2ccco2)cc1,,"inconclusive: 79.4 µM [inhibitor, partial curve]",
O=C(c1ccccc1Cl)N1CCC(c2nn(-c3ccccc3)c(=O)[nH]2)CC1,,"inconclusive: 56.2 µM [inhibitor, partial curve, poor fit]",
O=C(Nc1cccc(C(F)(F)F)c1)N[C@H]1CO[C@H]2[C@@H]1OC[C@H]2OC(=O)Nc1ccccc1,,"inconclusive: 44.7 µM [inhibitor, partial curve, poor fit]",
O=C(NCCc1ccccc1)C1c2ccccc2C(=O)N(Cc2ccccc2)C12CCCC2 (configuration not stated),,active: 39.8 µM,
C[C@@H]1C(=O)O[C@H]2[C@H]1CC[C@@]1(C)Cc3sc(NC(=O)c4ccc(N(C)C)cc4)nc3[C@@H](C)[C@H]21,,"inconclusive: 20 µM [inhibitor, full curve, poor fit]",
